± gives the standard deviation of the averaged measurements. Some of the results follow.
Each sequence was assayed on PfAP2-LT AP2 domain (GST-tagged) (assay: gcPBM binding intensity (ln(normalized median fluorescence intensity)); higher = stronger DNA binding).
In short: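 For binding intensity, the highest Masliner-normalised natural-log median intensity across replicate spots of either probe orientation was taken. Protein bound to the array was stained with Alexa488 anti-GST antibody and scanned at 488 nm. The protein, GST-tagged P. falciparum DNA-binding domains from E. coli at about 25 μg on average, had been applied for 1 h to an Agilent 4 × 180k array of primer-extended double-stranded 36-bp intergenic genomic probes and negative controls.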

Sequence	gcPBM binding intensity (ln)
AAAGAAAACGGACTTTGTACTTAAATATAATATAAA [XGTACX_site8585]	8.63 ± 0.44
TAAAGTTATATATTATGTACATATTTGTATACATTT [XGTACX_site2516]	8.93 ± 0.41
CAATAAATCGAAATCGTGCACGGACACATGCAGTAG	9.21 ± 0.38
GGTTCATTTATATGGAGTACAAAAAATATGTATATA [XGTACX_site8209]	8.65 ± 0.45
AAATAATATAAATACACACACACATATATAAATACA [CACACA_site4465]	10 ± 0.14
ATATATATAATAAGTGGTACAAGTTATTCATTAAAT [XGTACX_site7063]	8.85 ± 0.53
TTTTTATATAAATAATGTACATTTGGTTTTATTATA [XGTACX_site2125]	8.62 ± 0.47
ACAAAAATATTATATTGTACATTATTAGTTCATATT [XGTACX_site6750]	8.78 ± 0.41
AACACCCACAGACACACACACAAAAATGATTAAAAA [CACACA_site2433]	9.69 ± 0.46
TATTTGTATAAATAAAAATAATATATATCAAATAAC [CACACA_negctrl_site218]	8.54 ± 0.42
AATTTTTTTTTTTTTTTTTCTTTTGTAATAAACCAT [XGTACX_negctrl_site334]	8.4 ± 0.56
TTCAGCATAAACACTTGTACATATATACTAAAAATT [XGTACX_site7272]	8.63 ± 0.44
AAAAAAAAAAAACACACACACACACCGAAATATATA [CACACA_site4261]	9.99 ± 0.33
CGTTGTAGGGAATGTAGTACAGTTATTATTTTATTA [XGTACX_site2429]	8.7 ± 0.33
TCATACATTTTCAGCCTGCACTTATATTTAATAATA [GTGCAC_site9863]	8.69 ± 0.42
TATATATATAAATACACACACACACCGATATATATA [CACACA_site5408]	9.97 ± 0.11
ATATATATATATTATACACACGCCGAAAAAATAAAA [CACACA_site1551]	9.15 ± 0.33
TTACGAAAAAACAAGAGTACATGATGTTATAAAATA [XGTACX_site1412]	8.77 ± 0.51
TTTATTTTATCTAAAAGTACTTAAATTAGTGTATTT [XGTACX_site5696]	8.46 ± 0.4
ATTATGTGAGGTAACTAAATATGTACGTAACGAAGA [CACACA_negctrl_site1400]	9.04 ± 0.42
ATTATATTTTTAAGTACACACATATAAATAAATATA [CACACA_site7682]	8.67 ± 0.38
TATTAATTATTTTACTGTACTAATAATACTTTTATT [XGTACX_site2179]	8.76 ± 0.47
TAATGTATAATTAATCGTACATTAGATTGTTGTGTT [XGTACX_site52]	8.82 ± 0.4

Sequence	gcPBM binding intensity (ln)
ATATATATATATGTGTGTACTTAAAAATATAATGCA [XGTACX_site7753]	9.36 ± 0.3
ATTTCCCCAACGTGGGTGCATATATTTATGTGTGAA [GTGCAC_site9439]	8.81 ± 0.44
TTTCGTAAACAAATTTGTACGTACAAATTTATAAAT [XGTACX_site8175]	8.64 ± 0.42
TTTTTACTAATAAGATGTACATATATCCTAAGCATA [XGTACX_site251]	8.47 ± 0.45
TCTTTTATTAGTAAAAGTACTTATATAAATATTATA [XGTACX_site5099]	8.23 ± 0.47
TACATACATACATACACACATACATATATATATATA [CACACA_site1387]	9.56 ± 0.28
ATAATATAATAAACGTGTACACAATTAAATTATTAT [XGTACX_site3491]	9.01 ± 0.31
TGTTTTTTATTTAATTGTACGAATTAAAAAAAATAA [XGTACX_site3009]	8.04 ± 0.36
TTCCAACCATAGTATTCACACATTGTTTTATTCCAT [CACACA_site4927]	8.98 ± 0.43
AATATTCATATGCAGGTGCATTAATTTTTATTAATT	8.61 ± 0.45
GAAAAAAAAAAAAATACACACAAATTGGTATATAAT [CACACA_site4369]	9.02 ± 0.4
AATACTCTATTTTATAGTACATATATTATTAATCAC [XGTACX_site6622]	8.77 ± 0.43
TAGCTCGTTCGGAGCACACACATATAAATAAATATA [CACACA_site7002]	8.91 ± 0.45
TATCAAATCCAAAGGGGTACATTTTGTTGTCCTAAT [XGTACX_site5575]	8.63 ± 0.39
TAGGGATTATACCACACACACATACCCATAAATATA [CACACA_site5719]	9.55 ± 0.33
ATAGACAGCGCACAAACACACAAACACGCACGCACA [CACACA_site6349]	9.69 ± 0.23
TATTAACAAAATTTTTAACACACAAAAAAAAAAAAA [CACACA_site8542]	8.59 ± 0.47
TTTTTTGTTATATTTGTGCGCAAAAATTGCTGCTTG	8.94 ± 0.51
CATAATATATTTTATGCATGCAAAGCAACCTTTTGA [TGCATGCA_site715]	8.71 ± 0.36
TTTGTAAAATAATATCTTTCATGTCCTTACTAATTA [GTGCAC_negctrl_site145]	8.69 ± 0.56
AAAATTTATGTAAAATGTACATACATAAATAAAGAT [XGTACX_site4339]	9.11 ± 0.48
ATTATATATATATATAAACACACATAAATATAAATA [CACACA_site8291]	8.96 ± 0.39
TATTTATTTAAAGGCACACATATTTTTATACTTTCT [CACACA_site3163]	8.79 ± 0.49

Sequence	gcPBM binding intensity (ln)
CAAATTTTTTATTAAACACACAAACATATATTTATA [CACACA_site6992]	8.53 ± 0.45
AAAAAAGAAAAGAAATCATGAAAGAATCAAATAAAG [CACACA_negctrl_site1771]	8.79 ± 0.49
TTTTTATATATATTCTCACACACTTTTTATTTTAAC [CACACA_site657]	9.04 ± 0.47
TAAGGAAAAAATTATAGTACATAATAAATGTATATA [XGTACX_site8328]	8.62 ± 0.57
ATAAATATATTTCACGCACACACACCCCAAATAAAT [CACACA_site9272]	10.1 ± 0.2
TAAAAAACTTCGTGTTCACACATGTACTATATTATT [CACACA_site4796]	8.79 ± 0.42
TTTTTTTTTTTTTGTTGTACATTAAATATATTATTA [XGTACX_site7254]	8.56 ± 0.5
ACCCATAAGATAATTACACACAATACATCCCTATAT [CACACA_site5262]	9.39 ± 0.24
AAGCATATTATAAACACACACTGTATAAAGATATAT [CACACA_site6277]	9.27 ± 0.37
AAGTATAACCTTTATAATAATGACATGACCGATTTT [CACACA_negctrl_site395]	8.7 ± 0.38
TATAACCGAATGTGTACACAAAATAATGTTATATAT [CACACA_site5627]	9.18 ± 0.42
ATAATACGAATTTGTAGTACATTTATAATAACATGA [XGTACX_site2614]	8.65 ± 0.38
ATATAACGAATAATTACACACTATAAAAAAAGATCT [CACACA_site2862]	9.01 ± 0.47
CTTTTAAATTATTTTTGTACATAATTATATATATAT [XGTACX_site4128]	8.73 ± 0.47
AACTATAAATATAAATGTACACATATGTAATATATA [XGTACX_site6085]	8.87 ± 0.37
TACTGTTTAAAATATAAACACACATTGTTTGCTTTA [CACACA_site8358]	8.86 ± 0.47
AAAAGGAAAATTTTCTTAGTAACTGCATTAAGAGAT [GTGCAC_negctrl_site675]	8.68 ± 0.47
TGGAAAAATAGGCACACACACATATATACATATATA [CACACA_site1297]	9.72 ± 0.33
TTTTAATAACCAATCCGTACATATAATCTTTATATT [XGTACX_site536]	8.54 ± 0.57
TTATTATATTCTCCTTCACACACAAAAATATTTCAT [CACACA_site8738]	9.15 ± 0.38
TGAAAAATTACAAAAATAATAAAATGAAATAATAAA [GTGCAC_negctrl_site53]	8.6 ± 0.54
TAAAAGTTATAAGAGTGTACGTATATTTATATATCA [XGTACX_site2972]	8.63 ± 0.35
AGGACTAATATTTGAACACACATATAACATATACAT [CACACA_site7803]	8.99 ± 0.48

Sequence	gcPBM binding intensity (ln)
CCTCTTTATTTTAATTGTACATTTTTGTAGGTTTTT [XGTACX_site7130]	8.9 ± 0.52
ATGTATATATATATATGTACTAATTAGTAATTTACG [XGTACX_site6276]	9.03 ± 0.52
AAAACAAACCCATTTACACACATAAATAAATCAATT [CACACA_site6126]	9.38 ± 0.3
TCCTTTTTTTTGTAATGTACTTAGTTTGGTTATATG [XGTACX_site8208]	8.95 ± 0.45
TATTTACATGTAAAAGGTACACACATTATATATACA [XGTACX_site2157]	9.1 ± 0.39
ATACACTTTTATATATCAATACATTATGTATTAAGT [CACACA_negctrl_site421]	8.86 ± 0.35
TTTATTATTTTTTGTAGTACTTTATATAAAAGTTCT [XGTACX_site4494]	8.52 ± 0.54
TTGATTATAATTAGTACACACAAAATACATGCGGGG [CACACA_site2277]	9.455 ± 0.0071
AAATATATAATACATATGTAATATGCATATATATAT [GTGCAC_negctrl_site450]	8.98 ± 0.35
TTTTTATTACTTCTCTGTACTCAGGAAAATAAATAT [XGTACX_site2092]	8.35 ± 0.42
TGAATGTAAGAAAATACACACTAGTATAGTAACACC [CACACA_site5131]	9.24 ± 0.38
TAAGGAAAAAGAAAAAGTACATTATATAATAAATAG [XGTACX_site3282]	8.66 ± 0.59
CAAATATATGTTTTCACACACAAAAGAAATGAAACC [CACACA_site2162]	9.26 ± 0.46
AAAAAAAATAAAATGAATAAATAAGAATTACATATT [CACACA_negctrl_site863]	8.53 ± 0.59
ATAATATATTATTATAGTACTTTATTTTATTTTATG [XGTACX_site2387]	8.65 ± 0.5
GGATAGATCATTTACACACACAAAAAAAAAAAAAAA [CACACA_site2139]	9.21 ± 0.57
AATATATATATACATACATGCATACATATATATATA [TGCATGCA_site784]	8.98 ± 0.35
AAAAAGAAGATATATACACACCAAAAAAAAAAAAAA [CACACA_site7471]	8.9 ± 0.47
TACTATAAAATGGAATGTACACATAAATATATCTAA [XGTACX_site6137]	8.72 ± 0.47
ATATGATGTAAAAGCACACATATATATATATATATA [CACACA_site4018]	10.075 ± 0.0071

— the supplement of paper PMC11417369
